# Measurements: PubChem BioAssay AID1745845 (National Center for Advancing Translational Sciences (NCATS), 2022)
# Screen size: about 360,000 compounds; about 2,600 (0.72%) were called active. Inconclusive means that the source gave no clear call. Such entries were picked first, then a sample of the others. Calls come from the whole dose curve; as a rule, active = well fitted inhibition curve with a large enough effect; inconclusive = small, poorly fitted or top-dose-only effect; inactive = no such curve, though single readings can be large or run the other way. Where the call is inconclusive, the potency comes from a doubtful curve fit.
# Assay: Primary qHTS for Inhibitors of ATXN expression; note: nearly all actives have a fitted effect of over 55% in size
# Conditions: HEK-293 ATXN2-luciferase reporter, luminescence, 24 h; series mostly up to 57 µM
# In short: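 qHTS (up to 57 uM final) was run with 24 h compound exposure of reporter cells at 37 °C. Each well was multiplexed: SteadyGlo luminescence measured ATXN2-luciferase expression after a fluorogenic Gly-Phe-AFC viability readout (25 uM final).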
# Potency is the fitted concentration of half-maximal effect; tags give direction and shape of the fitted curve.
row,Compound,Potency
1,Cc1ccc(-n2ncc(C(=O)NCC3CCN(C4CCCC4)C3)c2C2CCN(C(=O)OC(C)(C)C)CC2)cc1 (stereo unspecified),"inconclusive: 31.6 µM [inhibitor, partial curve, poor fit]"
2,CCC(=O)NC(c1ccc(OC)c(OC)c1)c1cc(Cl)c2cccnc2c1O (stereo unspecified),"inconclusive: 4.74 µM [inhibitor, full curve, poor fit]"
3,C=C(C(=O)c1ccccc1)C(NC(C)(C)C)c1ccccc1 (stereo unspecified),active: 7.52 µM
4,CC1CCCC(NC(=O)CN(C)CC(=O)Nc2cccc(F)c2)C1C (stereo unspecified),"inconclusive: 33.6 µM [inhibitor, partial curve, poor fit]"
5,C[C@@H]1CN([C@H](C)CO)C(=O)CCCn2cc(nn2)CO[C@H]1CN(C)C(=O)Nc1ccc(C(C)(C)C)cc1,inactive
6,COc1ccc(-c2noc(N3CCN(c4cccc(C)c4C)CC3)n2)cc1OC,"inconclusive: 31.6 µM [inhibitor, single point]"
7,COc1ccc(NC(=S)Nc2ccc3nsnc3c2)cc1,inactive
8,O=C(NCc1ccccc1)c1csc(Nc2ccncn2)n1,"inconclusive: 8.63 µM [inhibitor, partial curve, poor fit]"
9,COCCNC(=O)c1c(N)n(-c2cccc(C)c2)c2nc3ccccc3nc12,inactive
10,O=C(NCCCn1ccnc1)c1nn2c(C(F)(F)F)cc(-c3ccc(Br)cc3)nc2c1Cl,"inconclusive: 25.1 µM [inhibitor, single point]"
11,CC(C)CNC(=O)c1c2c(nc3ccccc13)-c1ccccc1CC2,"inconclusive: 39.8 µM [inhibitor, partial curve, poor fit]"
12,Cc1ccc(-n2c(O)c(/C=N/Nc3ccc(S(=O)(=O)N4CCOCC4)cc3[N+](=O)[O-])c3ccccc3c2=O)c(C)c1,"inconclusive: 25.1 µM [inhibitor, partial curve, poor fit]"
13,COc1ccc(CCN2C(=O)N(c3ccc(F)cc3)C(=O)C2CC(=O)Nc2ccc(F)c(F)c2)cc1 (stereo unspecified),"inconclusive: 39.8 µM [inhibitor, single point]"
14,COc1ccc(C(=O)C2CCN(C(=S)NCCc3ccc(OC)c(OC)c3)CC2)cc1,"inconclusive: 12.6 µM [inhibitor, partial curve]"
15,CC1=C(C(=O)Nc2cccnc2)C(c2ccccc2)n2nc(SCc3ccccc3F)nc2N1 (stereo unspecified),"inconclusive: 35.5 µM [inhibitor, partial curve, poor fit]"
16,Cc1cc(C)cc(N(CC(=O)Nc2cccc(C)n2)S(=O)(=O)c2c(C)noc2C)c1,"inconclusive: 35.5 µM [inhibitor, partial curve]"
17,Cc1cc(C(=O)N/N=C/C=C/c2ccccc2[N+](=O)[O-])c(C)o1,"inconclusive: 9.47 µM [inhibitor, partial curve]"
18,OC(Cc1ccccc1Br)c1ncc(-c2cccc(C(F)(F)F)c2)[nH]1 (stereo unspecified),"inconclusive: 28.2 µM [inhibitor, single point]"
19,CCOC(=O)c1c(C)[nH]c(C(=O)OCC(=O)Nc2cc(C)c(Cl)cc2OC)c1C,"inconclusive: 39.8 µM [inhibitor, single point]"
20,O=S(=O)(NC1CCCC1)c1ccc(S(=O)(=O)N2CCc3ccccc32)cc1,"inconclusive: 17.8 µM [inhibitor, single point]"
21,Cc1nc2ccccc2n1C1CCN(CC(=O)Nc2ccccc2Br)CC1,"inconclusive: 31.6 µM [inhibitor, partial curve, poor fit]"

row,Compound,Potency
1,COc1cccc(-c2nn(C)c3sc(C(=O)N4CCN(c5cccc(C)c5)C(C)C4)cc23)c1 (stereo unspecified),"inconclusive: 39.8 µM [inhibitor, single point]"
2,CCOc1ccc(OCc2cccc(C(=O)O)c2)cc1,active: 0.282 µM
3,COc1ccc(CC(N)c2csc(NC(=O)c3ccccc3OC)n2)cc1 (stereo unspecified),active: 22.4 µM
4,Cc1cc2oc(C(=O)N(Cc3ccccc3)C3CCS(=O)(=O)C3)cc(=O)c2cc1Cl (stereo unspecified),inactive
5,COc1ccc(C(=O)N(CC2CCCO2)C(C(=O)NCCC(C)C)c2ccc(C)cc2)cc1OC (stereo unspecified),"inconclusive: 7.94 µM [inhibitor, single point]"
6,O=C(NC(NC(=O)c1ccccc1)c1ccccc1)c1ccccc1,"inconclusive: 22.4 µM [inhibitor, partial curve, poor fit]"
7,CCOc1ccc(C(C(=O)NC2CCCCC2)N(C(=O)Cc2cccs2)c2ccc(-n3cnnn3)c(OC)c2)cc1 (stereo unspecified),inactive
8,COc1ccc(OC)c(NC(=O)COC(=O)c2c3c(nc4ccccc24)CCCC3)c1,"inconclusive: 31.6 µM [inhibitor, single point]"
9,CCCCOC(=O)c1ccc(NC(=O)Cc2coc3ccc(C(C)C)cc23)cc1,"inconclusive: 39.8 µM [inhibitor, single point]"
10,O=C(Nc1ccn(CCCNC2CCN(Cc3ccccc3)CC2)c(=O)n1)OCc1ccccc1,"inconclusive: 28.2 µM [inhibitor, single point]"
11,COC(=O)c1cc(OC)c(OC)cc1NC(=O)c1ccc(C)cc1,inactive
12,COc1ccc(Cn2c(O)c(C=Nc3ccc(O)cc3)c3ccccc3c2=O)cc1,"inconclusive: 25.1 µM [inhibitor, single point]"
13,O=C(O)Cc1coc2ccc3ccccc3c12,inactive
14,CCO[C@@H]1OC(C(=O)NCc2ccccc2)=C[C@H](c2csc3ccccc23)[C@H]1CCCO,"inconclusive: 39.8 µM [inhibitor, partial curve, poor fit]"
15,O=S(=O)(Cc1ccc(Cl)cc1)c1ccccc1-c1nnc(-c2ccc(Cl)cc2)o1,inactive
16,Cc1cccc2c1NC(=O)/C2=C\C(=O)c1cccs1,"inconclusive: 39.8 µM [inhibitor, single point]"
17,O=C(NCCc1ccc(Cl)cc1)c1ccc(CS(=O)(=O)Cc2ccccc2F)o1,"inconclusive: 31.6 µM [inhibitor, single point]"
18,CC(C)c1ccc(Nc2c(-c3ccccc3O)nc3cnccn23)cc1,"inconclusive: 25.1 µM [inhibitor, partial curve]"
19,Cc1cnc(NC(=O)C2CC(=O)N(c3cccc(Cl)c3)C2)s1 (stereo unspecified),active: 0.562 µM
20,COc1cc(OC)c(OC)cc1/C=C1\CC(C)C/C(=C\c2cc(OC)c(OC)cc2OC)C1=O (stereo unspecified),active: 12.6 µM
21,CCCOC(=O)c1cccc(Nc2nc(-c3cccnc3)nc3ccccc23)c1,"inconclusive: 39.8 µM [inhibitor, single point]"

row,Compound,Potency
1,O=C(CN1CCN(c2ncc(C(F)(F)F)cc2Cl)CC1)NCCNc1ncc(C(F)(F)F)cc1Cl,"inconclusive: 35.5 µM [inhibitor, partial curve, poor fit]"
2,COc1cccc(S(=O)(=O)Nc2ccc(C(O)(C(F)(F)F)C(F)(F)F)cc2)c1,"inconclusive: 31.6 µM [inhibitor, single point]"
3,CC(C)CNC(=O)COc1ccc(Sc2ccc(OCC(=O)NCC(C)C)cc2)cc1,"inconclusive: 25.1 µM [inhibitor, partial curve, poor fit]"
4,CO[C@H]1/C=C\O[C@@]2(C)Oc3c(C)c(O)c4c(O)c(c(C=NN5CCN(C6CCCC6)CC5)c(O)c4c3C2=O)NC(=O)C(C)=CC=C[C@H](C)[C@H](O)[C@@H](C)[C@@H](O)[C@@H](C)[C@H](OC(C)=O)[C@H]1C,active: 5.44 µM
5,CC(C)c1ccc(/C=C(\c2nc3ccccc3[nH]2)S(=O)(=O)c2ccccc2)cc1,"inconclusive: 35.5 µM [inhibitor, single point]"
6,COc1ccc(-c2nn(C)c3sc(C(=O)Nc4cccc(F)c4)cc23)cc1OC,"inconclusive: 5.01 µM [inhibitor, partial curve, poor fit]"
7,CC(C)COP(=O)(OCC(C)C)C(Nc1ccccc1)c1ccc(F)cc1 (stereo unspecified),inactive
8,Cc1c(Cl)cccc1-n1ncc(C(=O)Nc2ccc3c(c2)OCCO3)c1C1CCN(C(=O)OC(C)(C)C)CC1,"inconclusive: 39.8 µM [inhibitor, partial curve, poor fit]"
9,CCOc1ccc(-c2nc(SC(C(C)=O)C(=O)N(C)C)c3c(=O)n(C)c(=O)n(C)c3n2)cc1 (stereo unspecified),inactive
10,Cc1ccc(C2Nc3ccccc3-n3c(-c4ccccc4)c4c(=O)n(C)c(=O)n(C)c4c32)o1 (stereo unspecified),"inconclusive: 22.4 µM [inhibitor, single point]"
11,COc1ccc(CNc2ncc(-c3ccc(Cl)cc3)n2C)c(OC)c1OC,inactive
12,COc1ccc(OC(F)(F)F)cc1CC1(C)C(=O)Nc2ccc(S(=O)(=O)NC3CCCCC3)cc21 (stereo unspecified),"inconclusive: 28.2 µM [inhibitor, single point]"
13,CCc1nc2ccc(C(=O)NCc3ccc(OC)cc3)cn2c1N(CC)CCOC,inactive
14,Cc1cccc(NC(=S)NC(NC(=O)OCc2ccccc2)C(Cl)(Cl)Cl)c1 (stereo unspecified),"inconclusive: 31.6 µM [inhibitor, single point]"
15,Cn1c(SCc2ccc(F)cc2)nc2ccc(C(=O)NCc3ccc(F)cc3)cc21,"inconclusive: 22.4 µM [inhibitor, partial curve, poor fit]"
16,C=CCn1cnc2c(c1=O)c1nc3ccccc3nc1n2/N=C/c1ccccn1,"inconclusive: 3.55 µM [inhibitor, partial curve, poor fit]"
17,O=C(c1ccc(S(=O)(=O)NCC2CCCO2)cc1)N1CCN(c2cccc(Cl)c2)CC1 (stereo unspecified),inactive
18,CCC[C@H]1CC(=O)C=C(c2ccc(OC)cc2)ON1C(=O)OC(C)(C)C,"inconclusive: 22.4 µM [inhibitor, partial curve, poor fit]"
19,NC1=NC[C@H](Cc2ccc(O)cc2)N1CCCCC1CCCCC1,"inconclusive: 20 µM [inhibitor, single point]"
